Test results reported in PubChem BioAssay AID463173 (ICCB-Longwood Screening Facility, Harvard Medical School, 2010).
Screen size: about 52,000 compounds; about 1,700 (3.3%) were called active. Cut-off read from the data, not from the text of the source: active = survival mostly below about 52% (no sharp cut-off); inactive = mostly above about 56%. The list shows a part of the results.

tested on: Wild type; test: growth inhibition of S. aureus wild type versus tarO mutant, primary screen, teichoic acid synthesis inhibitors, RN4220, OD600 (AID 463173); conditions: S. aureus RN4220 wild type/DeltatarO growth, OD600, 18 h, active compounds read low, screened at 18.75 µg/mL (by protocol)

Compound | survival
NNC(=O)CCC(=O)Nc1ccccc1 | inactive: 112%
CC(=O)c1ccc(Nc2nc3ccccc3nc2-n2nc(C)cc2C)cc1 | inactive: 54%
Cc1ccc(C)c(Cn2c3ccccc3c3cnn(CC(=O)NCC(C)c4ccccc4)c(=O)c32)c1 (configuration not stated) | inactive: 86%
COc1cccc(NC(=O)CSc2nccn2Cc2ccc3c(c2)OCO3)c1 | inactive: 82%
Cc1nc(-n2nc(C)c(Cc3ccc(Cl)cc3)c2C)sc1C(=O)N1CCCCC1C (configuration not stated) | inactive: 126%
CCOC(=O)C1=NN(c2ccc(C)cc2)CC1C(=O)OC (configuration not stated) | inactive: 101%
CCC(C)(C)N1CC(=O)N(Cc2ccccc2)C(c2ccc(OC)cc2)C1=O (configuration not stated) | inactive: 105%
O=C(CSCc1ccccc1Cl)NCc1ccc(Cl)c(Cl)c1 | inactive: 148%
CCC1(CC)C(=O)N(C)C(=O)NC1=Nc1ccccc1 | inactive: 114%
O=c1[nH]c2ccc(NCc3ccc(-c4ccc(Cl)cc4)o3)cc2[nH]1 | inactive: 111%
CCOc1ccccc1Nc1nc(-c2ccc(C)cc2)c(CC(=O)O)s1 | inactive: 71%
COc1ccc(C2c3c(oc4ccc(Cl)cc4c3=O)C(=O)N2CCCN(C)C)cc1OC (configuration not stated) | inactive: 71%
COc1cccc(CNC(=O)CN2C(=O)N(c3c(C)cccc3C)S(=O)(=O)c3ccccc32)c1OC | inactive: 67%
Nc1nnc(SCC(=O)N2CCN(c3ccccc3)CC2)s1 | inactive: 113%
COc1ccc(OC)c(NC(=O)C(C)n2nc(C)c3c(C)n(-c4ccccc4)nc3c2=O)c1 (configuration not stated) | inactive: 74%
Cc1ccc(NC(=O)CN2C(=O)CC(c3ccc(F)cc3)=Nc3ccccc32)cc1F | inactive: 83%
COc1ccc2c(c1)CCc1c(C(=O)Nc3c(C)nn(Cc4ccc(Cl)cc4)c3C)noc1-2 | inactive: 64%
CCOc1ccc(NC(=O)Cn2nnc(C(=O)NCc3cccs3)c2N)cc1 | inactive: 97%
Cc1cccc(C)c1NC(=O)CCS(=O)(=O)c1ccc2c(c1)CC(C)N2C(=O)C1CC1 (configuration not stated) | inactive: 55%

Compound | survival
COc1ccc(/C=C\c2onc(C)c2S(=O)(=O)N2CCC(C(=O)Nc3cccc(C)c3C)CC2)cc1 | inactive: 76%
CCOC(=O)c1cccc(NC(=O)CCc2c(C)nn(-c3ccc(N4CCCC4)nn3)c2C)c1 | inactive: 66%
Cc1ccc(OCC(=O)NCC2(N3CCOCC3)CCCCC2)cc1C | inactive: 104%
Cc1ccc(-c2nc3ccccc3s2)cc1NC(=O)COc1ccccc1 | inactive: 75%
CCOc1ccc(/C=C/c2nc(C#N)c(N3CCCCC3)o2)cc1 | inactive: 77%
CCCN(CCC)CCNC(=O)CN1C(=O)COc2ccc(S(=O)(=O)N3CCC(C)CC3)cc21 | inactive: 80%
CCCCN(CCCC)CCNC(=O)c1cn(CC)c2ccc(S(=O)(=O)N3CCc4ccccc4C3)cc2c1=O | inactive: 84%
Cc1oc(-c2cccc(Cl)c2)nc1CN1CCC(C(=O)NCCCN2CCN(c3ccccc3F)CC2)CC1 | inactive: 82%
CCOC(=O)Cn1nc(-c2ccccc2)c2cnc3ccc(OCC)cc3c21 | inactive: 105%
C=C(C)c1cccc(C(C)(C)NC(=O)NCc2cccnc2)c1 | inactive: 114%
O=C(CN(CCc1ccccc1)S(=O)(=O)c1ccc(Br)cc1)NCc1ccc(Cl)cc1 | inactive: 132%
CCC1CN(C(=O)C2CCN(S(=O)(=O)c3c(C)noc3/C=C/c3ccccc3F)CC2)c2cc(Cl)ccc2O1 (configuration not stated) | inactive: 71%
COc1ccc(N(Cc2cccs2)C(=O)c2ccc(Br)o2)cc1 | inactive: 84%
COc1ccc(NC(=O)C2CCCN(S(=O)(=O)c3ccc4c(c3)CCCC(=O)N4)C2)cc1OC (configuration not stated) | inactive: 79%
Cc1ccc2c(=O)cc(C(=O)Nc3ccc(S(=O)(=O)Nc4nc(C)cc(C)n4)cc3)oc2c1 | inactive: 99%
CC(=O)N1C(O)CCN1c1ccccc1 (configuration not stated) | inactive: 114%
CCc1ccc(NC(=O)CSC2=Nc3ccccc3C3=NC(CC(=O)NC4CCCCC4)C(=O)N23)cc1 (configuration not stated) | inactive: 88%
CCc1cc2c(=O)n(-c3ccccc3)cnc2s1 | inactive: 98%
CCOc1cc(C2C(C(=O)Nc3ccc(OC)cc3)=C(C)Nc3nc(SC)nn32)ccc1O (configuration not stated) | inactive: 164%

Compound | survival
O=C(C1CCN(c2ncnc3c2nc2n3CCCCC2)CC1)N1CCN(c2ccc(F)cc2)CC1 | active: -3%
COC(=O)C1C(O)=C(C=Nc2ccccc2)C(=O)CC1(C)C (configuration not stated) | inactive: 126%
O=C(c1ccco1)n1nc(-c2ccc(Cl)cc2)nc1NCc1ccccc1 | inactive: 74%
Cc1ccc(N2C(=O)NC(NS(=O)(=O)c3ccc(Cl)cc3)(C(F)(F)F)C2=O)cc1C (configuration not stated) | inactive: 87%
C/C=N/N(c1ccccc1)c1ccccc1 | inactive: 96%
CCc1ccc(NC(=O)Cn2c(=O)n(Cc3nc(-c4ccccc4)no3)c(=O)c3cc4c(cc32)OCO4)cc1 | inactive: 89%
COc1ccc(S(=O)(=O)N2CCC(c3ccncc3)CC2)cc1OC | inactive: 120%
CCC(Sc1ncnc2sc3c(c12)CCCC3)C(=O)OC(C)C (configuration not stated) | active: -2%
CCCC(=O)N1CC(=O)Nc2ccc(Cl)cc2C1c1ccccc1 (configuration not stated) | inactive: 71%
Cc1cccc(C(=O)Nc2ccc(C(=O)OCc3cc(=O)n4nc(C5CC5)sc4n3)cc2)c1 | inactive: 71%
COc1ccccc1N1CCN(C(=O)CCc2nnc3n(C)c(=O)c4sccc4n23)CC1 | inactive: 134%
COc1ccc(CC(=O)NC2CCN(S(=O)(=O)c3ccccc3C(=O)O)CC2)cc1OC | inactive: 113%
COc1ccc(S(=O)(=O)NCC(c2ccc(N(C)C)cc2)N2CCc3ccccc32)cc1 (configuration not stated) | inactive: 73%
CC1CC(CN)CC(CO)C1 (configuration not stated) | inactive: 108%
COCCNC(=O)CSc1cn(CC(=O)N2CCCCCC2)c2ccccc12 | inactive: 90%
CSc1ccc(CCNC(=O)Cn2ncc3c(=O)oc4ccccc4c32)cc1 | inactive: 80%
Cc1ccc(NC(=O)C2CCCN2S(=O)(=O)c2ccc3nc(-c4ccccc4)[nH]c3c2)cc1F (configuration not stated) | inactive: 70%
CCOc1ccc(OCC)c(NC(=O)C2CCN(S(=O)(=O)c3cn(C)cn3)CC2)c1 | inactive: 121%
Cc1nn(C)cc1C(C(=O)NC1CCCCC1)N(CCc1ccccc1)C(=O)c1cnccn1 (configuration not stated) | inactive: 111%
